From paper PMC12136788 come the findings set out here.

Sequences and labels used below:
T1: UNK ZnF1-3 (human, UniProt Q9C0B0 31-174)
T1 sequence: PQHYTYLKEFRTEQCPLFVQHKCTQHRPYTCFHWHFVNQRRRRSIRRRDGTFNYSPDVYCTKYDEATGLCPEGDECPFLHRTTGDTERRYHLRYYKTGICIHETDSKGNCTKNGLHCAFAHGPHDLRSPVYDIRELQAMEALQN

B1: chr12:52885226:52885227:-_ENSMUSG00000035247_ENSMUST00000042052|mus_mus|FALSE|FALSE (ssRNA)
RNA: GGGAGUUCUACAGUCCGACGAUCUUUGAAGACAUUUAUUCUUUCUACCAGUUGACUACAAUCUUGCUUCAUAUCCAAAUCUAUACUAUUGUUUAGAACAGUAAGAAGUGCCUGGACUAAACCACUACUACACAUUUCAUACGGCAACAGAGGAUUGAGCAUCA
B2: chr3:138289918:138289919:-_ENSG00000114107_ENST00000484888|hu_mus|motif|central (ssRNA)
RNA: GGGAGUUCUACAGUCCGACGAUCGUGUGCCGCUCGGUUCUGUUCUAGCUGAAGUUCACUUUUCAGUUGCUGGUUGGUCUCGGUGAGCUCCCGUAUCAUGCUCUGCUGACGUGUUGUUUCUUCCAUCAACGUUUUCAAAAUCUGCAACAGAGGAUUGAGCAUCA
B3: chr2:136607347:136607348:+_ENSMUSG00000027273_ENSMUST00000028727|mus_hu|FALSE|FALSE (ssRNA)
RNA: GGGAGUUCUACAGUCCGACGAUCAGAUAACAGCCAUGAGGAACCAAAGACGGCACAUUUUGAGAGAUUCAGAGCCUGACACUCAAAGGACCGUGGCAGUAACUCUGUGGAAUGUCACAGUUUUACAAGAACAAUACUGUGGAUCAACAGAGGAUUGAGCAUCA
B4: chr12:48362563:48362564:+_ENSG00000134291_ENST00000256686|hu_hu|hu_hu_hu_mus_False|28_108 (ssRNA)
RNA: GGGAGUUCUACAGUCCGACGAUCUCCGAAGGGUGAAUCGAUAGACCCUUGCGGGGGAAACUGUAAUCACUUUGUAUGGGGAAGGAAAAGAAACGCCAAAAACUUUCUUUCUUUCUUGGGUGGGGUGAGGCGGGAGGGGGAGGUCAACAGAGGAUUGAGCAUCA
B5: 117016693_117017702_1975_3pUTR_ENSMUSG00000020823_ENSMUST00000090433|mouse|control|control (ssRNA)
RNA: GGGAGUUCUACAGUCCGACGAUCAGCCUGGCCACCUGGUCACAUGGGACCCCUGCACGCUCUCUCCUUCUUUGCAGAUUAGAGGAGACUCCACCAUGCUAUAGUCCCGGCCCAGCUGCCAGACUUUGUCUAUCAGCUGCACGUCAACAGAGGAUUGAGCAUCA
B6: chr7:141450121:141450122:+_ENSG00000106028_ENST00000265304|hu_mus|hu_hu_hu_mus_True|1_8 (ssRNA)
RNA: GGGAGUUCUACAGUCCGACGAUCUCAUCCGUUCUAUGCCUUUUCUUUUGUCUGGUCACUCAGAAAUAUAAUGUUAUCAGCUAUGAUUGUUGUUGCUUGCCGCCUCACAUUGUUUUUAUCCAUGUACUCACCAUAGUCUAUUUUCAACAGAGGAUUGAGCAUCA
B7: chr7:140404665:140404666:+_ENSG00000090266_ENST00000247866|hu_hu|motif|central (ssRNA)
RNA: GGGAGUUCUACAGUCCGACGAUCCUUGUACAGAGUGAGGCUGAGUCUACACCUUCAGUCUUCAUCAUCAGGAGGGAUACCGGAUUCUUCAUCUGUCCACUGGGAAGGAUCAGGAUACGGAAAGUGACCCAGCACCUCUUCUGACAACAGAGGAUUGAGCAUCA
B8: chr11:23185130:23185131:+_ENSMUSG00000020290_ENSMUST00000020538|mus_mus|FALSE|FALSE (ssRNA)
RNA: GGGAGUUCUACAGUCCGACGAUCGAACGGCAUUACUUCUCCAACUUGAACCUGAACAAAAUGCCUACGGCAUUUUUGAGCUAUUUUAAUAAAUGUGUCACAAGCCAUAUCCUGGACUCCAUCAUGGGUCUCAUGCAUGAAUUCCAACAGAGGAUUGAGCAUCA
B9: chr10:57206289:57206290:+_ENSMUSG00000019878_ENSMUST00000079833|mus_hu|motif|central (ssRNA)
RNA: GGGAGUUCUACAGUCCGACGAUCGCCGGCACGUUCGAACUCUGCUUCAUUGUUAACGCGGCGCAGGGAUUCCAAAUUCGGCACCCGAACGCGGUGGUAGCGGCGGCGGCAGCUACGGCAGCAGCUCCCCGAGAACGCCCACAACAACAGAGGAUUGAGCAUCA
B10: chr9:24234919:24234920:-_ENSMUSG00000043067_ENSMUST00000142064|mus_hu|motif|central (ssRNA)
RNA: GGGAGUUCUACAGUCCGACGAUCGUAAACCAGCUCUCCAUGAUCAAACUGGUGUUUUCUUACAUGUGUCUGUUGUUUAGCGGAGACACCCCACAUAUCACUAAUAAUCUUUCUAACAAUAGCAACAAACACUACAAGAACAACCAACAGAGGAUUGAGCAUCA
B11: chr6:30809960:30809961:-_ENSMUSG00000025607_ENSMUST00000048774|mus_mus|FALSE|FALSE (ssRNA)
RNA: GGGAGUUCUACAGUCCGACGAUCACUUGAUGCAGCUUCUUGGGCUUCAUUUAUCCAUCGUUUAACCACAUCAUAGCUUAUCUUCAUCAUGUGUAAGGAAGAGACCAGCGCUGAGCUGGCUACACUGGAUACUUUAUCCACAAUCAACAGAGGAUUGAGCAUCA
B12: 46326924_46327987_897_CDS_ENSG00000139218_ENST00000369367|human|control|control (ssRNA)
RNA: GGGAGUUCUACAGUCCGACGAUCAGGUAAUGUAUCAGGAAACCAUGACAAUUCCAGUUCAUGUCUCUUCUGCCUAAUCAAUGCACUGAUUUCACUGGCUUCUAUAAAUUCUGUACAAUAAGCUCUAUAGGUAAAGGAAGAUUCCAACAGAGGAUUGAGCAUCA
B13: chr10:33190432:33190433:-_ENSG00000150093_ENST00000302278|hu_mus|hu_hu_hu_mus_True|28_28 (ssRNA)
RNA: GGGAGUUCUACAGUCCGACGAUCUACAUUUUCCAAACCUGCAUGUGAAUAAAACCCUGGCCACAGAGCCCCAAAACUACCCUACUGUGACUAAGAUGCUGCUGCUGUUGCAUUCAGGUUGCAAAAUCCGCCUGAGUAGGAUUCCAACAGAGGAUUGAGCAUCA
B14: chr3:58389886:58389887:+_ENSMUSG00000075700_ENSMUST00000107924|mus_mus|motif|central (ssRNA)
RNA: GGGAGUUCUACAGUCCGACGAUCUUUGCCAACAAUUAUUAAGCCUAUUAAUACUAGUUUGAAGACUGACAGGAAAGAUGCGGUGUGUCUAUAAAUUGGUUGAGGGAGAUAAUUCUCGCCUUCAAUGCGGAUGUCUGGAUACCGCAACAGAGGAUUGAGCAUCA
B15: chr4:140556289:140556290:+_ENSMUSG00000036622_ENSMUST00000037055|mus_mus|motif|central (ssRNA)
RNA: GGGAGUUCUACAGUCCGACGAUCGAUGGAGCUCACCAGGCCCCCUUUGGCUGUGCAGAACCCUGUCCGAGUCACCACUGCGGGCACACGGGGUCCCACGUAGGCUCGGGCCUGCAGAAUGAGGGUGCCACAGAAGAGGGUGUGCAACAGAGGAUUGAGCAUCA
B16: chr8:30040655:30040656:+_ENSG00000104671_ENST00000221114|hu_hu|FALSE|FALSE (ssRNA)
RNA: GGGAGUUCUACAGUCCGACGAUCUUAUCUUCAUGUUAUACACUGUUCUUAGUUCUUUACUGGAGUUGAGCUUCCUUUCAUAGUCUUCUUUAGGUGGUGGUAAUUUGGCAAGAUUUUCAUCAAGAAAUCCAGCUGUAGUGUCUGCAACAGAGGAUUGAGCAUCA
B17: chr7:141438946:141438947:+_ENSG00000106028_ENST00000265304|hu_mus|hu_hu_hu_mus_True|8_108 (ssRNA)
RNA: GGGAGUUCUACAGUCCGACGAUCGACUACCUGUAAUUAACACAGGUCUUCGAAACAUGGCUUCUGUUUUUCUUACAACCUAAUCUUUAGGCUUUUCCUAAAGGAAAGAAAGAAAAGAGAAAAAUGAGCAGGGGAUCAACUACACAACAGAGGAUUGAGCAUCA
B18: chr8:40069188:40069189:+_ENSMUSG00000039530_ENSMUST00000167992|mus_mus|FALSE|FALSE (ssRNA)
RNA: GGGAGUUCUACAGUCCGACGAUCCUUCUGUCCGCCCCCGAGCUGGAUGCAGAGCAGCAGCAGCAAGAGGAGGAAGGGAAAGCUACCAGUAGGCAGGUAGCGCAACCGGCGGCCCGCCUGUCUCCGGCGUGAAGGAGCGGCCCUCAACAGAGGAUUGAGCAUCA
B19: chr6:83912051:83912052:+_ENSMUSG00000030016_ENSMUST00000032088|mus_mus|motif|central (ssRNA)
RNA: GGGAGUUCUACAGUCCGACGAUCUGCCUUUUUAUGAGAUGAUAAAACCAAAAUGUCCUUCAAAGCACCAAAUGGUUUUGCGGAGUUGUAAAUUUCUUCUGUAGAAUAUCCUUUGUUAGGCAAAUUAGAAAUAAAUACUACACUCAACAGAGGAUUGAGCAUCA
B20: 27507010_27508669_794_3pUTR_ENSG00000107897_ENST00000396271|human|control|control (ssRNA)
RNA: GGGAGUUCUACAGUCCGACGAUCUGUCAUUCUGUAUAUCCUGAACAAAGCCAUCUUUAUCAUAGCCAUUAGUGACAAUGACUUCCAAAUUCUUAUGGUCUGCUGACUUCUUCAUCAUUUUCUUAUCAUUAUCACUUUGUUCUGCAACAGAGGAUUGAGCAUCA
B21: chr2:47388980:47388981:-_ENSG00000143933_ENST00000272298|hu_mus|hu_hu_hu_mus_True|8_8 (ssRNA)
RNA: GGGAGUUCUACAGUCCGACGAUCUUCAUCUGUUAACUUCUCGCCAAGGUUUGUCAUCACAUGGCGAAGCUCUGCUGCACUAAUAUAGCCAUUGCCAUCCUUAUCAAACACACGGAAUGCUUCUCUAAUUUCUUCUUCACUGUCCAACAGAGGAUUGAGCAUCA
B22: 110453126_110453246_3646_CDS_ENSMUSG00000044791_ENSMUST00000153838|mouse|control|control (ssRNA)
RNA: GGGAGUUCUACAGUCCGACGAUCCAGCUCUGUUUUUCCUAGUCUACUACUAUCUGGCCGAUUAGAGAAAAUCAUCUGCUGCCGAGACUUAUUUGGGAGAUCUUCAAAAUCGUCAGAAUAAACUGGUAGCUCUUGUGGCCUAGACAACAGAGGAUUGAGCAUCA

The other results are listed elsewhere or left out.

The assay concerns the target T1, UNK ZnF1-3. Kind of assay: nsRBNS (natural sequence RNA bind-n-seq); RBNS binding buffer (assumed for nsRBNS): 25 mM Tris pH 7.5, 150 mM KCl, 3 mM MgCl2, 0.01% Triton X-100, 500 ug/ml BSA, 20 U/ml SUPERase-In, 4 C; UNK is unkempt and MSI1 is Musashi-1; names of the RNAs are library labels; protein concentration not given here; high values mean tight binding.
On to B1, for which the binding signal amounted to 0.803 enrichment R.

For B2, the binding signal stood at 0.344 enrichment R.

In turn, B3 came in with a binding signal of 1.67 enrichment R. The value for B4 was 1.64 enrichment R; that for B5 was 0.436 enrichment R; that for B6 was 0.406 enrichment R. The value for B7 was 0.558 enrichment R; that for B8 was 1.23 enrichment R; that for B9 was 1.19 enrichment R. B10 came in with a binding signal of 1.09 enrichment R. The value for B11 was 0.576 enrichment R. Then B12, with 0.879 enrichment R; and B13, with 1.14 enrichment R. The value for B14 was 1.32 enrichment R; that for B15 was 0.717 enrichment R. Take B16: the binding signal is 1.09 enrichment R. B17 showed a binding signal of 0.487 enrichment R. The value for B18 was 0.62 enrichment R.

As to B19, the binding signal was 0.677 enrichment R. Then B20, with 0.451 enrichment R. Then B21, with 0.74 enrichment R; and B22, with 0.519 enrichment R.
